According to the supplement of paper PMC11417369:
This is one part of the list.

test system: PF3D7_0420300 AP2 domain 1 (GST-tagged); test: gcPBM binding intensity (ln(normalized median fluorescence intensity)); higher = stronger DNA binding
Summary of the method: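 The binding buffer was 1× PBS containing 1% milk, 0.2 mg/ml BSA, 0.5% salmon testes DNA and 0.03% Triton X-100. In it, GST-tagged P. falciparum DNA-binding domains expressed in E. coli were applied for 1 h to an Agilent 4 × 180k array of primer-extended double-stranded 36-bp intergenic genomic probes plus negative controls. Binding intensity, read with Alexa488 anti-GST antibody and a 488 nm scan, is the highest Masliner-normalised natural-log median intensity across replicate spots of either probe orientation.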

Row | Sequence | gcPBM binding intensity (ln)
1 | ATATTAAAAAGGAAATGTACGTAATGAAGATCAAGT [XGTACX_site3138] | 9.77
2 | TAAATTGGTGCAAAGTGTACATATATATCTTTCCTA [XGTACX_site5458] | 9.22
3 | GAGAAAAATATATACACACACATAAATATATACATA [CACACA_site1895] | 9.92
4 | AAATATCAACTCAAATGTACAAATCACAAAAATGTA [XGTACX_site5344] | 9.31
5 | ATATATGATGTATTTGTGCACATATATATATTATTA [GTGCAC_site9471] | 9.3
6 | AAACGGGAGAAATAAAAATAAAAATAATAAAACAAA [XGTACX_negctrl_site586] | 9.43
7 | TATACTCATGGACACACACACATACACAGACATACA [CACACA_site5024] | 9.92
8 | TTCATATATAATTGTACACACAAAAACGACATTGTG [CACACA_site2074] | 9.54
9 | GGAAATAAAATTAAATGTACGAAAACTCATTAAATT [XGTACX_site4274] | 9.22
10 | TAAATATGAGGGAACACACACATGATATATAAATTC [CACACA_site2400] | 9.86
11 | ATTGTTACATAAAATGCACACTTTCAAATATGCTAA [CACACA_site5600] | 9.21
12 | ATATATACCTATATTACACACTTCTTATTCTAAGAA [CACACA_site7421] | 9.24
13 | AGGGTTCATATATTAACACACACATACATATTATAT [CACACA_site8959] | 9.81
14 | TATACACATATATATAGTACATATATAATTTACTAT [XGTACX_site1849] | 9.25
15 | AGTATTCTAATTTTTAAACACACAAATATAAATAAG [CACACA_site9029] | 9.36
16 | TATTTATTAAGACACACACACACACGCACAAAATAA [CACACA_site6254] | 10.2
17 | TGAAATTAAATATATACACACATATATATTTATATG [CACACA_site3516] | 9.3
18 | AAACAAAAGGAAAACATATATATATTAAATGTATAT [CACACA_negctrl_site1663] | 9.44
19 | ATTTAGAATGTTCCTACACACCAAATTTAAGGGTGC [CACACA_site5320] | 9.3
20 | ATTTATATTCCAATATGTACATATTTTCGTATAACC [XGTACX_site8507] | 9.26
21 | TTTTTTTTTCTCCATACACACTTGATAAAACTTTTT [CACACA_site4512] | 9.29
22 | ATTACAAATTCTTTCAGTACATATAAAGAAAAAAAT [XGTACX_site7786] | 9.19

Row | Sequence | gcPBM binding intensity (ln)
23 | GCAAAATAACAATGTTACACTTATAAAATTGAGGCA [GTGCAC_negctrl_site68] | 9.12
24 | TTAAAAAACATTTGAACATGCAATTGTATATGTAGA [TGCATGCA_site334] | 9.19
25 | TTAATACAAATAAAAAGTACAAGTATCGAACTACTA [XGTACX_site6308] | 9.28
26 | TTTTTAGTAACATATAGTACATATATATATATATGT [XGTACX_site4780] | 9.2
27 | TTATTTTTTCTTCAAATGTGAATTATTCATTTATTT [TGCATGCA_negctrl_site545] | 9.16
28 | ATAATATGAAACTCGTACGAGGTTGTCCCAAATATA [CACACA_negctrl_site1350] | 9.42
29 | GATATGTAAATAATATGTACATATTTATATTGTATT [XGTACX_site4052] | 9.36
30 | TTTAAAGGTGATAAAACACACGATTTAGAAATGTAT [CACACA_site3161] | 9.35
31 | ATATATTATCAACTTACACACAGAAAAATATAATAA [CACACA_site293] | 9.75
32 | AAAAAGAATGTGAACACACACATTGAATATAATTTA [CACACA_site1262] | 9.46
33 | AAAAAAAAAACACACACATGCACATCATATTATATA [TGCATGCA_site133] | 9.84
34 | GTATCAAAAGAATACACACACACATACCTATAAATA [CACACA_site7737] | 10.1
35 | AAAGGAAAAAAAGTAGCACACAAATATTTATAATAT [CACACA_site8772] | 9.67
36 | CATACATAAATATAAACATGCATATATTTTTTTTAT [TGCATGCA_site616] | 9.26
37 | ATTTTAATAAAATATGTACACACATACACCCATATA [CACACA_site8326] | 9.52
38 | TGATATCTTAAGAAATGTACAAAGATATAACCATTT [XGTACX_site1913] | 9.11
39 | TAAATAAAAAAAAATACACACATCTATATAAAATAT [CACACA_site3774] | 9.67
40 | GATATTTTTATTTGTTGTACTTAAGATAATAAATGA [XGTACX_site2891] | 9.17
41 | AATATATTAAAAAAGCGTACAAGAATTGGAAAATGG [XGTACX_site6576] | 9.68
42 | AAAAAAAAAAAAATACGTACACAAAAAATTGCAAAG [XGTACX_site5663] | 9.49
43 | ATAAATGTGTTTATTTAACACACAAAAGAAAAAATA [CACACA_site8589] | 9.55
44 | TGTATAACCTGTGTTACACACATTAAAATTTATATA [CACACA_site4449] | 9.24
